The RNAGym collection of RNA variant scans (doi:10.1093/nar/gkz1192)
The source gives no read counts; variants with many changes may rest on few reads.

B1: CPEB3 Ribozyme (parent)
chain: UAACAGGGGGCCACAGCAGAAGCGUUCACGUCGCAGCCCCUGUCAGAUUCUGGUGAAUCUGCGAAUUCUGCUGUAUAUCUC

Variants of: B1
Assay: self-cleavage, relative activity (ratio to wild type); higher = more cleavage; in vitro, sequencing
How it was run: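 Relative activity compares each variant's cleaved/total read fraction with that of the unmutated ribozyme. To get these fractions, barcoded CPEB3 ribozyme libraries from rounds of error-prone PCR were transcribed with T7 RNA polymerase for 5 hours at 37°C and then given 15 min of DNase I treatment before EDTA was added. The RNAs were reverse transcribed with template switching and sequenced on Illumina, and DNA sequencing linked barcodes to variants. A minimum of 5 reads applied, and three batches were averaged.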
In the case of UAACAGCGGGCCACAGCUCAAGCGUUCCCGUUGCAGCCCCUGUCGGAUUCUGGUGAAUCUGCGAACUCUGCUGUAUAUCUC [G7C A18U G19C A28C C32U A45G U66C], the self-cleavage is reported as 0.12. UAACAGCGGGCCACAGCUGAAGCGUUCACGACGCAGCCCCUGUCAGAUUCUGGUGAAUCUGCGAAUUCUGCUGUAUAUCUC [G7C A18U U31A] gave a self-cleavage of 0.21. UAACAGCGGGCCACAGCAGUAGCGUUCACGUCGCAGCCCCUGUCAGAUUCUGACGAAUCUGCGAAUUCUGCUGUAUAUCUC [G7C A20U G53A U54C] showed a self-cleavage of 0.19. With UAACAGCGGGCCACAGCAGAAGCGUUCUCGUCGCAGCCCCUGUCAGAUUCUGGCGGAUCUGCGAAUUCUGCUGUAUUUCUC [G7C A28U U54C A56G A77U] the self-cleavage was 0.07. Variant UAACAGCGGGCCACAGCAGAAGCGUUCACGUCGCUGCCCCUGUCAGAUCCUGGUGAAUCUGCGAAUUCUGCUGUAUACCUC [G7C A35U U49C U78C] has a self-cleavage of 0.06. In the case of UAACAGCGGGCCACAGCAGAAGCGUUCACGUCGCAGCCCCUGUCUGAUUCUGGUGUAUCUGCGAAUUCUGCUGUAUACCUC [G7C A45U A56U U78C], the self-cleavage is reported as 0.19. UAACAGCGGGCCACAGUAGAGGCGUCCACGUCGCAGCCCCUGUCAGAUUCUGGUGAAUCUGCGAAAUCUGCUGUAUAUCUC [G7C C17U A21G U26C U66A] showed a self-cleavage of 0.23. UAACAGCGGGCCACAGCAGAAGUGUUCACGACGCAGCCCCCGUCAGAUUCUGGUGAAUCUGCGAAUUCUGCUGUAUAUCUC [G7C C23U U31A U41C] showed a self-cleavage of 0.36. For UAACAGCGGGCCACAGCAGAAGCGUUCACGUCGCAGCCCUUGUCAGAUUCUGGUGAGUCUGCGAAUUCUGCAGUAUAUCUC [G7C C40U A57G U72A], the self-cleavage was 0.16. UAACAGCGGGCCACACCAGAAGCGUUCACGUCGCAGCCCCUGUCAGAUUCUGGUGAGUCUACGAAUUCUGCUGUACAUCUC [G7C G16C A57G G61A U76C] gave a self-cleavage of 0.1. For UAACAGCGGGCCACAUCAGAAGCGUUCACGUCGCAGCCCCUGUCAGAUUCUGGUGAAUCUGCGCAUUCUGCUGUAUAUCUC [G7C G16U A64C], the self-cleavage was 0.1. With UAACAGCGGGCCACAGCAGAAUCGUUCACGUCGCAGCCCCUGUCAGGUUCUGGUGAAUCUGCGAAUUCUGCUGUAUAUCUC [G7C G22U A47G] the self-cleavage was 0.2. In the case of UAACAGCGGGCCACAGCAGAAGCUAUCACGUCGCAGCCCCUGUCAGAUCCUGGUGAAACUGCGAAUUCUGCUGUAUAUCUC [G7C G24U U25A U49C U58A], the self-cleavage is reported as 0.17. Work on UAACAGCGGGCCACAGCAGAAGCGUUCACCUCGCAGCCCCUGUCAGAUUCUGGUGGAUCUGCGAAUUCUGCUGUAUAUCUC [G7C G30C A56G] yielded a self-cleavage of 0.23. Work on UAACAGCGGGCCACAGCAGAAGCGUUCACCUCGCAGCCUCUGCCAGAUUCUGGUGAAUCAGCGAAUUCUGCUGCGUAUCUC [G7C G30C C39U U43C U60A U74C A75G] yielded a self-cleavage of 0.06. With UAACAGCGGGCCACAGCAGAAGCGCUCACGUCGCAGCCCCUGUCAGAUCCUGGUGAAUCUGCGAAUUCUGCUGUAUAUCUC [G7C U25C U49C] the self-cleavage was 0.33. In the case of UAACAGCGGGCCACAGCAGAAGCGUACACGUCGCACCCCCUGUCAGAUUCCGGUGAAUCUGCGAAUUCUGCUGUAUAUCUC [G7C U26A G36C U51C], the self-cleavage is reported as 0.13. With UAACAGCGGGCCACAGCAGAAGCGUCCACGUCCCAGCCCCUGUCAGAUUCUGGUGAAUCUGCGAAUUCUGCUGUAUAUCUC [G7C U26C G33C] the self-cleavage was 0.2. Work on UAACAGCGGGCCACAGCAGAAGCGUCCACGUCGCAGCCCCCGUCAGAUUCUGGUGAAUCUCCGAAUUCAGCUGUAUAUCUC [G7C U26C U41C G61C U69A] yielded a self-cleavage of 0.41. In the case of UAACAGCGGGCCACAGCAGAAGCGUUCACGUCGCAGCCCCAGUCAGAUUCUGGUGAAUCUGCGAAUUCUGGUGUAUAUCUC [G7C U41A C71G], the self-cleavage is reported as 0.05. Variant UAACAGCGGGCCACAGCAGAAGCGUUCACGUCGCAGCCCCUGACAGAUUCUGGUGGACCUGCGAAUUCUGCUGUAUAUCUC [G7C U43A A56G U58C] has a self-cleavage of 0.05. With UAACAGCGGGCCACAGCAGAAGCGUUCACGUCGCAGCCCCUGCCAGGUUCUGGUGAAUCUGCGAAUUCUGCUGUAUAUCUC [G7C U43C A47G] the self-cleavage was 0.23. In the case of UAACAGCGGGCCACAGCAGAAGCGUUCACGUCGCAGCCCCUGUCAGAUUCUGGUGAAUCUGCGAAUUCCGCUGUACAUCUC [G7C U69C U76C], the self-cleavage is reported as 0.08. Variant UAACAGCGGGCCACAGCAGAAGCGUUCACGUCGCAGCCCCUGUCAGAUUCUGGUGAAUCUGCGAAUUCCGCUGUAUAUCAC [G7C U69C U80A] has a self-cleavage of 0.1. In the case of UAACAGUGGGCCCCAGCAGAAGCGUUCACGUCGCAGCCGCUGUCUGAUUCUGGUGAAUCUGCGAAUUCUGCUGUAUAUCUC [G7U A13C C39G A45U], the self-cleavage is reported as 0.07. Work on UAACAGUGGGCCACGGCAGAUGCGUUCACGUCGCAGCCCCUGUCAGACUCUGGUGAAUCUGCGAAUUAUGCUGUAUAUCUC [G7U A15G A21U U48C C68A] yielded a self-cleavage of 0.05. Work on UAACAGUGGGCCACGGCAGAAGCGUUCUCGUCGCAGCCCCUGUCGGAUUCUGGCGAAUCUGCGAACUCAGCUGUAUAUCUC [G7U A15G A28U A45G U54C U66C U69A] yielded a self-cleavage of 0.04. Work on UAACAGUGGGCCACGGCAGAAGCGUUCACGUCGCAGCCCCUAUCAGAUUCGGGUGAACCUGCGAAUUCUGCUGUAUACCUC [G7U A15G G42A U51G U58C U78C] yielded a self-cleavage of 0.04. UAACAGUGGGCCACGGCAGAAGCGUUCACGUCGCAGCCCCCGUCAGAUUCUGGAGAGUCUGCGAAUUCUGCUGUAUAUCUC [G7U A15G U41C U54A A57G] gave a self-cleavage of 0.3. Work on UAACAGUGGGCCACGGCAGAAGCGUUCACGUCGCAGCCCCUGCCAGAUUCUGGUGAAUCUGCGAAUUCUGCUGUAUAUCUC [G7U A15G U43C] yielded a self-cleavage of 0.3. Work on UAACAGUGGGCCACAGCUGAAGCGUUCACGUCGCAGCCCCUGACAGAUUCUGGUGAAUCUGCGAAUUCAGCUGUAUAUCUC [G7U A18U U43A U69A] yielded a self-cleavage of 0.38. In the case of UAACAGUGGGCCACAGCAGGAGCGUUCACGUCGCUGCCCCUGUCAGAUUCUGGAGAAUCUGCGAAUUCUGCUGUAUAUCUC [G7U A20G A35U U54A], the self-cleavage is reported as 0.07. Variant UAACAGUGGGCCACAGCAGGAGCGUUCACGUCGCUGCCCCUGUCAGAUUCUGGUGAAUCUGCGAAUUCUGCUGUAUAUCCC [G7U A20G A35U U80C] has a self-cleavage of 0.06. Variant UAACAGUGGGCCACAGCAGGAGCGUCCUCGUCGCAGCCCCUGUCAGAUUCUGGUGAAUCUGCGAAUUCUGCUGUAUAUCUC [G7U A20G U26C A28U] has a self-cleavage of 0.17.
